The source of these data is publication PMC2946606.

Protein sequences, listed by entry. Tags and fused reporters are not part of them. Lines headed by an entry give the natural chain unless they say otherwise; changes in a name come on top. Residues count along the entry.
UniProt P19793: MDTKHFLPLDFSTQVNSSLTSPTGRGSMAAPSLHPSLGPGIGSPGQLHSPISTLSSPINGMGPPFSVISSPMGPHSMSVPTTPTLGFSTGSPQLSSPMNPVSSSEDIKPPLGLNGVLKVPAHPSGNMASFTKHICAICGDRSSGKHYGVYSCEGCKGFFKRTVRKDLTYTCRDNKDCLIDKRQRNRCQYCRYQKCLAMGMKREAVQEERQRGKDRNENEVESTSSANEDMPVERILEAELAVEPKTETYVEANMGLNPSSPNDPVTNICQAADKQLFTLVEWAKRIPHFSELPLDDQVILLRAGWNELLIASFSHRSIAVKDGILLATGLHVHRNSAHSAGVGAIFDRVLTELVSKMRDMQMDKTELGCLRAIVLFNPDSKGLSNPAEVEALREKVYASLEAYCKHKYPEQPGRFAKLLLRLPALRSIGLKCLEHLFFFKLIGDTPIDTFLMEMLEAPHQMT
UniProt Q925J9, residues 1470-1570: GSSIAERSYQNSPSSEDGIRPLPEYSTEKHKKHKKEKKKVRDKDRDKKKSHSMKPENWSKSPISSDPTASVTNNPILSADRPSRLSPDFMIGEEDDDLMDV
UniProt P03372: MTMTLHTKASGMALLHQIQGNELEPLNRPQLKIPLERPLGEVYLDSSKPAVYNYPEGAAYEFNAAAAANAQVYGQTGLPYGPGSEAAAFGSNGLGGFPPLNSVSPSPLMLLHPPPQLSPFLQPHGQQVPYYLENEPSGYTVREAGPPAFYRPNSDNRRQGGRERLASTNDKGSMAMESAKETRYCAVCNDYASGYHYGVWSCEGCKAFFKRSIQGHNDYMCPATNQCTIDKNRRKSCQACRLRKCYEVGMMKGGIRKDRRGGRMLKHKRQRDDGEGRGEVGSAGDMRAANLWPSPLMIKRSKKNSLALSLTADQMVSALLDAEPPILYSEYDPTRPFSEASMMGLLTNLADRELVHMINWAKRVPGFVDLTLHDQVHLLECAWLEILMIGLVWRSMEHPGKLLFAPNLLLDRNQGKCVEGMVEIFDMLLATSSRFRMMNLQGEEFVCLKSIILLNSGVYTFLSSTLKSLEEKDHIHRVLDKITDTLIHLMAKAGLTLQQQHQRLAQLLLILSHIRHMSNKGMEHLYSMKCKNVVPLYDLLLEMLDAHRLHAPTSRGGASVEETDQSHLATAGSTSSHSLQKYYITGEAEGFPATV
UniProt Q92616: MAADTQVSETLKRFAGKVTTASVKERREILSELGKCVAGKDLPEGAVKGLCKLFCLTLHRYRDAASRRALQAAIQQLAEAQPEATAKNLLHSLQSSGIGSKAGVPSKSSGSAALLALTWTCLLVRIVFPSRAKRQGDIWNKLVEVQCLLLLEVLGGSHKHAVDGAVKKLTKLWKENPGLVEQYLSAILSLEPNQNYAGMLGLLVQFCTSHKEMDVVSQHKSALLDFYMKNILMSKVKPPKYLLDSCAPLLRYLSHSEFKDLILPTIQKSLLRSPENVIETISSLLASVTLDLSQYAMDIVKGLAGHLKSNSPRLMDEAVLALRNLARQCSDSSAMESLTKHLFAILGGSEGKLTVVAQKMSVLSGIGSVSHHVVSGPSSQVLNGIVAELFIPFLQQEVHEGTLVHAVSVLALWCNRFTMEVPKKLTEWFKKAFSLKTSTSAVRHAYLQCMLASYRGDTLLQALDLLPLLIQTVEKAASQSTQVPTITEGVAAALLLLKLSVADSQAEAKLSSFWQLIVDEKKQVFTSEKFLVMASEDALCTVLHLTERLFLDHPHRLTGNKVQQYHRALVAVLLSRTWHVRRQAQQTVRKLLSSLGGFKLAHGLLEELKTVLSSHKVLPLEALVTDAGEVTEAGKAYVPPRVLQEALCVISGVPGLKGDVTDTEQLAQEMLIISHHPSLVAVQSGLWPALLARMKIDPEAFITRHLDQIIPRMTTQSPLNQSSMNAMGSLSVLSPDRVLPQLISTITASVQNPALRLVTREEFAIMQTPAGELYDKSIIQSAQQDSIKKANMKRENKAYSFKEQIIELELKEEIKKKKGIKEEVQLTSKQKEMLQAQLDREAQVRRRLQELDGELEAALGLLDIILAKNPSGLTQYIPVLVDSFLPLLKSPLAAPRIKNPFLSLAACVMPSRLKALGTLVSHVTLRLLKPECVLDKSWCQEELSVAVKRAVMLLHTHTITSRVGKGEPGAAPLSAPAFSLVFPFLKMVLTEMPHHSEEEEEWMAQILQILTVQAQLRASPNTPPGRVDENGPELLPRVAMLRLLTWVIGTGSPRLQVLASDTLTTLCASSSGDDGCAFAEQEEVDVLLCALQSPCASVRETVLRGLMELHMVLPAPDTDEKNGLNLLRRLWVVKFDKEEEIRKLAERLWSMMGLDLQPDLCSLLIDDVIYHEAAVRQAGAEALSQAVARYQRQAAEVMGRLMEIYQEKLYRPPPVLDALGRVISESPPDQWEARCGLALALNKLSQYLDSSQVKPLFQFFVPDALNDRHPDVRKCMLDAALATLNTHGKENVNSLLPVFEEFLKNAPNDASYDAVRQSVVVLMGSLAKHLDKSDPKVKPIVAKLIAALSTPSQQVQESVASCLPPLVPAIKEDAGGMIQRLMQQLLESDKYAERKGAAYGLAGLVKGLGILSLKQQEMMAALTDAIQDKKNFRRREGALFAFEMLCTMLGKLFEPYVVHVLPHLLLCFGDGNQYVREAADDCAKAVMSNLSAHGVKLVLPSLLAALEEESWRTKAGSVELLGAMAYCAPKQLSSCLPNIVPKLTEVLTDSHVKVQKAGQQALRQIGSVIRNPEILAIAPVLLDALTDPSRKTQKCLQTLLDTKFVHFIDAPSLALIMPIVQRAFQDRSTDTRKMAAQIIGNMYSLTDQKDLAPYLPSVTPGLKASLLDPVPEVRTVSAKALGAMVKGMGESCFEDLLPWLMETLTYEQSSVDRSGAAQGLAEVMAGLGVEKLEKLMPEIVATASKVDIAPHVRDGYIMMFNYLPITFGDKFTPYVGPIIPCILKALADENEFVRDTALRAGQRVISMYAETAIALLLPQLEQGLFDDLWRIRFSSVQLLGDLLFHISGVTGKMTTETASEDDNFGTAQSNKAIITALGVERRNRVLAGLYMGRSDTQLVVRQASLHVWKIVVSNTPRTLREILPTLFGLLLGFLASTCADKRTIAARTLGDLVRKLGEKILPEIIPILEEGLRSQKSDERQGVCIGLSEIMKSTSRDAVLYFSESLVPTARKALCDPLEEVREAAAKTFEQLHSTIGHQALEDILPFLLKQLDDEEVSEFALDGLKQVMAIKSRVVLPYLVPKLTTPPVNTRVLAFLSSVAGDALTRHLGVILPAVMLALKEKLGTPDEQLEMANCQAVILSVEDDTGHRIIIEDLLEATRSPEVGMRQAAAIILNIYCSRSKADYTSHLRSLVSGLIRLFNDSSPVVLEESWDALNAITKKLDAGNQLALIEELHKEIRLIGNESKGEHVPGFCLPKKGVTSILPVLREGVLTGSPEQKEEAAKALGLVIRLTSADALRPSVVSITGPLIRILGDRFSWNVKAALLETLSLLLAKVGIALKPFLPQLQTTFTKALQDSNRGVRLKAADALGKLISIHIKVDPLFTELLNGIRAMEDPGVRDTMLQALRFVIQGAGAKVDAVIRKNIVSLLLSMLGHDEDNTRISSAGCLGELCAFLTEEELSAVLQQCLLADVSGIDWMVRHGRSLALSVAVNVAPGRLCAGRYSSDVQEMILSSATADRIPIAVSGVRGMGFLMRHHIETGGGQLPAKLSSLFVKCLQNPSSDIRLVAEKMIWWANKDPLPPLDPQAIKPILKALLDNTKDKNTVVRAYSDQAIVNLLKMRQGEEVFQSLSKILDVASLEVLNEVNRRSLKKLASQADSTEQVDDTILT
UniProt Q15648: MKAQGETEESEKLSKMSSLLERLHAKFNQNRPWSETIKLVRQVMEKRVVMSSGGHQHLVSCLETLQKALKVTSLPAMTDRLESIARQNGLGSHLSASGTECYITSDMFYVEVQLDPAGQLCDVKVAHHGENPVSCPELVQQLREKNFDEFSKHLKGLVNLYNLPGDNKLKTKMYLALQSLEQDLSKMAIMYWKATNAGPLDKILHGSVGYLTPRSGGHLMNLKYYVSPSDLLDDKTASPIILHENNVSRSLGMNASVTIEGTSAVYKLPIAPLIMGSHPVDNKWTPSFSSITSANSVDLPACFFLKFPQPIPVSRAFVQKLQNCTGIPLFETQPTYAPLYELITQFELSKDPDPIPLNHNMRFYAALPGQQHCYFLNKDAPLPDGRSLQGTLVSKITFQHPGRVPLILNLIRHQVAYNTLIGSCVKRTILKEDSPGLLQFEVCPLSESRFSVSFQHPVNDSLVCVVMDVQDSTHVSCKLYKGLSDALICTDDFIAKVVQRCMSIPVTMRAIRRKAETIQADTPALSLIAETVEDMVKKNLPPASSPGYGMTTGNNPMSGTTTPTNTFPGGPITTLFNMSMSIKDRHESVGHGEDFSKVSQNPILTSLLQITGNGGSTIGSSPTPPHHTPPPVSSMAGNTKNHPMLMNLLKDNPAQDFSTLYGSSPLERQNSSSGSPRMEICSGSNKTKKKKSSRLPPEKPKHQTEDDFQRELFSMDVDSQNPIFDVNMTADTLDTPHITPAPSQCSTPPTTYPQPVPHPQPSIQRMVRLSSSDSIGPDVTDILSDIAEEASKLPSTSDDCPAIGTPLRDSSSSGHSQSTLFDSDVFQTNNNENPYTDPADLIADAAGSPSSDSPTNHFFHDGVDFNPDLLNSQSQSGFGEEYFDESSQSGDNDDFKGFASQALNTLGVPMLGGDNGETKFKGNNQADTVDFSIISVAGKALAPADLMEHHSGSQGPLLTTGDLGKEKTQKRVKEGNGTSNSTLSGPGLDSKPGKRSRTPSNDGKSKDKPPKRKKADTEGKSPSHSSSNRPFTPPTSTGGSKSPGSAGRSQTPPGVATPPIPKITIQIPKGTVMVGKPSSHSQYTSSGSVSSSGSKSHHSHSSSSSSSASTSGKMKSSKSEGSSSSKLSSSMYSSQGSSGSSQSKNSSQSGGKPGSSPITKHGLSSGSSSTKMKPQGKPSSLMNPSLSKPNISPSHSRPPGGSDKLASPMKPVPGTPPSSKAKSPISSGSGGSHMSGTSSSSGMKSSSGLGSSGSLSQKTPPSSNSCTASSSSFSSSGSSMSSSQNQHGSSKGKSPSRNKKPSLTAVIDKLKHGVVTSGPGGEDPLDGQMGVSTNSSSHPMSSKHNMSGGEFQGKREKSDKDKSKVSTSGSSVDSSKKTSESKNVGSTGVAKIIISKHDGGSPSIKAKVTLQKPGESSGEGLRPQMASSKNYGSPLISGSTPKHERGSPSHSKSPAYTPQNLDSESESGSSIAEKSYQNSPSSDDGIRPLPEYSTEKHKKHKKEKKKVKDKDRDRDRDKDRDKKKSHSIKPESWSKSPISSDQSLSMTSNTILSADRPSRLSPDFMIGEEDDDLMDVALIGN

For one assay, the target named is T1, GST-PPARα (UniProt P23204).
T1 sequence: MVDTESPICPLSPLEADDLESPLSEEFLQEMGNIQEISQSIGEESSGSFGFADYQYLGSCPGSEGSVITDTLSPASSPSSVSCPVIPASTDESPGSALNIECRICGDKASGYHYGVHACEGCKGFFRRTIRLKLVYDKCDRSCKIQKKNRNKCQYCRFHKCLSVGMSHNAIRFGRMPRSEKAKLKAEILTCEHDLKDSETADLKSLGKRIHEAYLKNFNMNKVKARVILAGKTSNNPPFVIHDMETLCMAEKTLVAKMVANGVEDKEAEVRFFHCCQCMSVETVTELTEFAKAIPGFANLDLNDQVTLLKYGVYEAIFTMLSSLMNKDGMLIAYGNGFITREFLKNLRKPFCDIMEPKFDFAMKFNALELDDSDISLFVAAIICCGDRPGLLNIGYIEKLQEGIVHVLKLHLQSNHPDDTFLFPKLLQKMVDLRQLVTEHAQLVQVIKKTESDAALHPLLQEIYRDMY
The assay can be described thus: pull-down; GST or GST-fusion protein on glutathione sepharose 4B beads, incubated with in vitro translated 35S-methionine PRIC295 or its fragments, 4°C, 2 hours, gentle shaker; washed, SDS-PAGE, autoradiography; nuclear receptors without and with receptor-specific ligand (10 μM to 100 μM); only the target purified.

In a further assay the target is GST-RXRα (UniProt P19793). The description is as above.
Another assay addresses GST-ΔPBP^1470–1570 (UniProt Q925J9). The assay is described as above.
Another assay has as its target T2, GST-CAR (UniProt O35627).
T2 sequence: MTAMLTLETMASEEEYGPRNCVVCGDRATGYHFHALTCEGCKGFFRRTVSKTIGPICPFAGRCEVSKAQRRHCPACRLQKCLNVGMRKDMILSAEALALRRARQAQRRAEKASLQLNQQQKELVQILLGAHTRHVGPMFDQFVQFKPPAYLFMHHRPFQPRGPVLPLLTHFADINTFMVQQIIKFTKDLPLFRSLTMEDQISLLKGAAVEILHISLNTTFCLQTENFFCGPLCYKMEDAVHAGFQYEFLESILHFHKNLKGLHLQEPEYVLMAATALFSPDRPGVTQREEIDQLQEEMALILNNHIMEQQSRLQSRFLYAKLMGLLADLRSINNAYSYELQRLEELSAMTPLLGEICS
The assay is described as above.

A further assay deals with GST-ERα (UniProt P03372). Described as above.
A further assay addresses PRIC295-3xFLAG (human) (UniProt Q92616). In words: co-IP; HeLa cells transfected with PRIC295-3xFLAG; nuclear extract, resin covalently bound with anti-FLAG M2 antibody; immunoblot for PPARα, Med24 and Med1.
Assay [1] addresses T3, PPARα in rat liver nuclear extract (rat (endogenous in rat liver)) (UniProt P37230).
T3 sequence: T1 sequence with I41L, G50S, V85A, I86V, A88T, S96N, V135A, G207A, D265N
In words: pull-down; ciprofibrate-Sepharose, rat liver nuclear extract; the bound protein complex immunoblotted for PPARα, Med24/TRAP100 and Med1. Background: In western blotting, separated proteins are transferred to a membrane and probed.

Changes are numbered by the printed parent chain. No constants are given. Whether binding was seen depends on the method and setting. In cells and extracts the contact can be indirect. Some results given as binding are weak or reduced against the parent protein; the word gives no strength. For some assays here: Sequences can lack the tags named with a protein.

“ΔPRIC295^1–915 (F1), in vitro translated (from UniProt Q92616 1-915) (domain or fragment)”: the binding result with GST-PPARα, in the assay with GST-RXRα and with GST-ΔPBP^1470–1570 was “binds” throughout.

With “ΔPRIC295^840–1815 (F2), in vitro translated (from UniProt Q92616 840-1815) (domain or fragment)”, the binding result with GST-CAR was “binds”; with GST-ERα, “binds”; with GST-PPARα it was “binds”; with GST-RXRα, “binds”; with GST-ΔPBP^1470–1570, “binds weakly”.

Take “ΔPRIC295^1740–2671 (F3), in vitro translated (from UniProt Q92616 1740-2671) (domain or fragment)”: the binding result with GST-PPARα is “no binding”; with GST-ΔPBP^1470–1570, “binds weakly”.

“Med1 in HeLa nuclear extract (from UniProt Q15648 1-1581)”: the binding entry with PRIC295-3xFLAG (human) is on record as “binds”.

B1: PPARα in HeLa nuclear extract (receptor, UniProt Q07869 1-468)
chain: MVDTESPLCPLSPLEAGDLESPLSEEFLQEMGNIQEISQSIGEDSSGSFGFTEYQYLGSCPGSDGSVITDTLSPASSPSSVTYPVVPGSVDESPSGALNIECRICGDKASGYHYGVHACEGCKGFFRRTIRLKLVYDKCDRSCKIQKKNRNKCQYCRFHKCLSVGMSHNAIRFGRMPRSEKAKLKAEILTCEHDIEDSETADLKSLAKRIYEAYLKNFNMNKVKARVILSGKASNNPPFVIHDMETLCMAEKTLVAKLVANGIQNKEAEVRIFHCCQCTSVETVTELTEFAKAIPGFANLDLNDQVTLLKYGVYEAIFAMLSSVMNKDGMLVAYGNGFITREFLKSLRKPFCDIMEPKFDFAMKFNALELDDSDISLFVAAIICCGDRPGLLNVGHIEKMQEGIVHVLRLHLQSNHPDDIFLFPKLLQKMADLRQLVTEHAQLVQIIKKTESDAALHPLLQEIYRDMY
As for B1, in the assay with PRIC295-3xFLAG (human), the binding result was “binds”.

B2: Med24/TRAP100 in HeLa nuclear extract (protein, UniProt O75448 1-989)
chain: MKVVNLKQAILQAWKERWSDYQWAINMKKFFPKGATWDILNLADALLEQAMIGPSPNPLILSYLKYAISSQMVSYSSVLTAISKFDDFSRDLCVQALLDIMDMFCDRLSCHGKAEECIGLCRALLSALHWLLRCTAASAERLREGLEAGTPAAGEKQLAMCLQRLEKTLSSTKNRALLHIAKLEEASSWTAIEHSLLKLGEILANLSNPQLRSQAEQCGTLIRSIPTMLSVHAEQMHKTGFPTVHAVILLEGTMNLTGETQSLVEQLTMVKRMQHIPTPLFVLEIWKACFVGLIESPEGTEELKWTAFTFLKIPQVLVKLKKYSHGDKDFTEDVNCAFEFLLKLTPLLDKADQRCNCDCTNFLLQECGKQGLLSEASVNNLMAKRKADREHAPQQKSGENANIQPNIQLILRAEPTVTNILKTMDADHSKSPEGLLGVLGHMLSGKSLDLLLAAAAATGKLKSFARKFINLNEFTTYGSEESTKPASVRALLFDISFLMLCHVAQTYGSEVILSESRTGAEVPFFETWMQTCMPEEGKILNPDHPCFRPDSTKVESLVALLNNSSEMKLVQMKWHEACLSISAAILEILNAWENGVLAFESIQKITDNIKGKVCSLAVCAVAWLVAHVRMLGLDEREKSLQMIRQLAGPLFSENTLQFYNERVVIMNSILERMCADVLQQTATQIKFPSTGVDTMPYWNLLPPKRPIKEVLTDIFAKVLEKGWVDSRSIHIFDTLLHMGGVYWFCNNLIKELLKETRKEHTLRAVELLYSIFCLDMQQVTLVLLGHILPGLLTDSSKWHSLMDPPGTALAKLAVWCALSSYSSHKGQASTRQKKRHREDIEDYISLFPLDDVQPSKLMRLLSSNEDDANILSSPTDRSMSSSLSASQLHTVNMRDPLNRVLANLFLLISSILGSRTAGPHTQFVQWFMEECVDCLEQGGRGSVLQFMPFTTVSELVKVSAMSSPKVVLAITDLSLPLGRQVAAKAIAAL
On to B2, for which, in the assay with PRIC295-3xFLAG (human), the binding entry is given as “binds”.

B3: Med24/TRAP100 in rat liver nuclear extract (protein, UniProt Q4V8B3 1-987)
chain: MKVVNLKQAILQAWKERWSDYQWAINMKKFFPKGATWDILNLAEALLEQAMIGPSPNPLILSYLKYAISSQMVSYSSVLTAISKFDDFSRDLCVQALLDIMDMFCDRLSCHGKAEECIGLCRALLSALHWLLRCTAASAERLQEGLEAGSAVTGEKQLALCLQCLEKTLSSTKNRALLHIAKLEEASSWTAIEHCLLKLGEILANLSNPQLRSQAEHCGTLIRSIPTMLSVHSEQLHKTGFPTIHALILLEGTMNLTGEMQPLVEQLMMVKRMQHIPTPLFVLEIWKACFVGLIESPEGTQELKWTAFTYLKIPQVLVKLKKYFHGDKDFTEDVNCAFEFLLKLTPLLDKADQRCNCDCTNFLLQECNKQGLLSEASFASLVSKRTADRDPQLKSSENANIQPNPGLILRAEPTVTNILKTMDADHSKSPEGLLGVLGHMLSGKSLDLLLAAAAATGKLKSFARKFINLNEFTTHGSGESTKTASVRALLFDISFLMLCHVAQTYGSEVILSESSSGEEVPFFETWMQTCMPEEGKILNPDHPCFRPDSTKVESLVALLNNSSEMKLVQMKWHEACLSISAAILEILNAWENGVLAFESIQKITDNIKGKVCSLAVCAVAWLVAHVRMLGLDEREKSLQMIRQLAGPLYSENTLQFYNERVVIMNSILEHMCADVLQQTATQIKFPSTGVDTMPYWNLLPPKRPIKEVLTDIFAKVLEKGWVDSRSIHILDTLLHMGGVYWFCNNLIKELLKETRKEHTLRAVQLLYSIFCLDMQQVTLVLLGHILPGLLTDSSKWHSLMDPPGTALAKLAVWCALSSYSSHKGQASSRQKKRHREDIEDYISLFPVEDMQPSKLMRLLSSNEDDASILSSPTDRSMNSSLSASQLHTVNMRDPLNRVLANLFLLISSVLGSRTAGPHTQFVQWFMEECVDCLEQDSRGSILQFMPFTTVSELVKVSAMSSPKVVLAITDLSLPLGRQVAAKAIAAL
As to B3, the binding result in assay [1] is “binds”.
